Data as given in PubChem BioAssay AID1346428 (National Center for Advancing Translational Sciences (NCATS), 2018).
The whole screen tested about 48,000 compounds, of which about 1,200 (2.5%) were called active. Inconclusive results (about 2%) are left out.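 How the source made its calls: active means activation of at least 60% and not above a set upper limit (about 1 call in 100 departs from these limits); inconclusive means activation of 40% to 60%, or above that upper limit; inactive means activation under 40%.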 This is one part of the list.

What follows are compounds tested against Probable G-protein coupled receptor 32 (Homo sapiens) (UniProt O75388) (assay: qHTS for Agonists of Human Resolvin D1 Receptor DRV1). Conditions: CHO-K1 GPR32 beta-arrestin PathHunter luminescence, 90 min; at 76.9 µM; hits give high values; zero percent set by DMSO-only wells.
UniProt O75388, sequence (O75388 whole entry, looked up, the tested form may be a part): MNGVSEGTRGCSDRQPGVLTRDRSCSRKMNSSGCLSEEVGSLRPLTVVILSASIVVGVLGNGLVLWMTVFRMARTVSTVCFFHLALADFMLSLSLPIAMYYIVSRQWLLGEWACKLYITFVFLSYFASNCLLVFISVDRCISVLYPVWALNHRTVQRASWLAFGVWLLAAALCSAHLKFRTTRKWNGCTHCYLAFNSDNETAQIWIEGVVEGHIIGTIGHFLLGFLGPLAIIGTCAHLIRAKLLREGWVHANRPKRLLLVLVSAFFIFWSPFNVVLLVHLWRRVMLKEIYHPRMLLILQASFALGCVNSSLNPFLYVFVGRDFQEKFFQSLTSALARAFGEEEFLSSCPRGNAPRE
Summary of the method: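 PathHunter enzyme-fragment complementation, CHO-K1 GPR32 stable line; 2,500 cells/well, overnight attach; cpd 90 min 37 °C 5% CO2; detection reagent 1 h RT; chemiluminescence. DMSO = EC0.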
In the case of COc1ccc(-c2cc(C(F)(F)F)n3nc(C)c(-c4ccccc4)c3n2)cc1OC, the activation is reported as inactive: 1.52%.
For O=C(CCc1cn(Cc2ccc(F)cc2)c2ccccc12)NC1CCCCC1, the activation was inactive: -9.48%.
With Nc1cc(C(F)(F)F)ccc1S the activation was inactive: 30.5%.
In the case of COc1ccc(OC)c(CNC(=O)CCCn2c(=O)c3cccn3c3cccnc32)c1, the activation is reported as inactive: -5.2%.
For CCOc1ccccc1NC(=O)Cn1c(=O)n(Cc2ccc(OC)cc2)c(=O)c2oc3ccccc3c21, the activation was inactive: -3.58%.
With O=C(Nc1ccccc1F)c1cnc(N2CCCCC2)c2ccccc12 the activation was inactive: -16%.
In the case of Cc1oc(-c2ccccc2F)nc1Cn1c(SCc2cccc(C(F)(F)F)c2)nc2ccncc21, the activation is reported as inactive: 12%.
With O=C1CC[C@@H](C(=O)O)N1 the activation was inactive: 0.226%.
With CCc1ccccc1NC(=O)c1cc(-c2ccc(Cl)s2)nc2ccccc12 the activation was inactive: 4.83%.
Cc1cc2c(cc1S(=O)(=O)Nc1ccc(C(C)C)cc1)OCCN2C was tested, and the activation was inactive: -9.61%.
COc1cc2c(CCNC(C)=O)c[nH]c2cc1O was tested, and the activation was inactive: 9.53%.
COc1ccc(N(CC(=O)Nc2cc(OC)cc(OC)c2)S(=O)(=O)c2c(C)noc2C)cc1 was tested, and the activation was inactive: -3.09%.
COc1ccccc1-c1nnc(C2CCN(C(=O)c3ccccc3C)CC2)o1 was tested, and the activation was inactive: 17.2%.
For COc1ccccc1NC(=O)c1cc2c(=O)n(Cc3cccs3)ccc2nc1C, the activation was inactive: -10.8%.
In the case of Cc1cccc(-n2cnc3cc(C(=O)NCc4ccccc4Cl)ccc32)c1, the activation is reported as inactive: -11.1%.
With Cc1ccc(O)c(NC(=O)CCS(=O)(=O)c2nc(-c3cccs3)cc(C(F)(F)F)n2)c1 the activation was inactive: -28.7%.
With Cc1cccc(-n2c(C)cc(C(=O)C(=O)Nc3nncs3)c2C)c1 the activation was inactive: 8.84%.
With COc1ccc(CCNc2ncnc3c2c(-c2ccccc2)cn3-c2ccc(Cl)cc2)cc1OC the activation was inactive: -38.6%.
With COC(=O)c1ccc(NC(=O)C2CCN(c3ncnc4c3nc3n4CCCCC3)CC2)cc1 the activation was inactive: -11.2%.
With COc1cc(CN(C(=O)c2ccc(OC(C)C)cc2)c2ccccn2)cc(OC)c1OC the activation was inactive: 32.5%.
In the case of COc1cccc(-c2nc(CS(=O)(=O)CC(=O)Nc3cccc(C(C)=O)c3)c(C)o2)c1, the activation is reported as inactive: -22.3%.
With Cc1cc(C)cc(Nc2cc(C(=O)NC3CCCCC3)c3ccccc3n2)c1 the activation was inactive: 5.58%.
With Cc1cc(C)cc(NC(=O)CSc2c(C(C)C)cnc3c2c(=O)n(C)c(=O)n3C)c1 the activation was inactive: -6.03%.
Cc1cc(Nc2nc3ccccc3c3nnc(C)n23)ccc1Br was tested, and the activation was inactive: 23.3%.
Fc1ccc(-c2cc3ncc4c(n3n2)-c2cc(Cl)ccc2OC4)cc1 was tested, and the activation was inactive: -0.351%.
O=C(O)CNC(=O)c1ccccc1 was tested, and the activation was inactive: 9.99%.
For CCOC(=O)c1cc(C)n(CC2CCC(C(=O)Nc3ccc(OC)cc3)CC2)c1C (configuration not stated), the activation was inactive: -13.6%.
With CCCCc1ccc(C(=O)Nc2ccc3nc(N4CCN(CC)CC4)cc(C)c3c2)cc1 the activation was inactive: -11.3%.
With CCOC(=O)c1ccccc1NC(=O)CSc1nnc(CC)n2c1cc1occc12 the activation was inactive: -10.4%.
With COc1ccc(C)cc1NC(=O)c1cc(S(=O)(=O)N2CCC(C)CC2)ccc1F the activation was inactive: -17.6%.
With CC1=C(C(=O)NCc2cccc(F)c2)C2(CCCCCC2)OC1=O the activation was inactive: -20%.
Cc1ccc(-n2ncc(C(=O)Nc3ccc4c(c3)OCCO4)c2C2CCN(C(=O)OC(C)(C)C)CC2)cc1C was tested, and the activation was inactive: -10.1%.
For COc1ccc(CNC(=O)c2cc(-c3ccc(Br)s3)nc3ccccc23)c(OC)c1, the activation was inactive: -7.48%.
With COCCN1CCc2nc(SCC(=O)Nc3ccc(C)c(Cl)c3)[nH]c(=O)c2C1 the activation was inactive: 15.6%.
For COc1ccc(Nc2nc3ccc(C)cc3nc2-n2nc(C)cc2C)cc1Cl, the activation was inactive: -15.5%.
COc1ccccc1N1CCN(C(=O)Cn2ncc3c2-c2cc(C)ccc2OC3)CC1 was tested, and the activation was inactive: -12.7%.
CCOc1ccccc1CNC(=O)Cn1c(=O)c2cccn2c2ccc(F)cc21 was tested, and the activation was inactive: -12%.
In the case of COc1ccccc1NC(=O)CC1Sc2ccc(C(F)(F)F)cc2NC1=O (configuration not stated), the activation is reported as active: 64.4%.
For CCOC(=O)c1noc2ncn(CC(=O)Nc3ccc(F)cc3Cl)c(=O)c12, the activation was inactive: 11.2%.
In the case of COc1ccc(-c2onc(C)c2C)cc1S(=O)(=O)NCc1cccs1, the activation is reported as inactive: -12.1%.
With CC1=C(C(=O)OCc2ccc(C)cc2)C(c2ccccc2C(F)(F)F)CC(=O)N1 (configuration not stated) the activation was inactive: 10.7%.
In the case of CC1CCCCN1Cc1c(O)ccc2c(=O)c(-c3ccc(Cl)cc3)c(C(F)(F)F)oc12 (configuration not stated), the activation is reported as inactive: -17.5%.
In the case of CCOc1ccc(C(=O)Nc2ccc3c(c2)CCCN3S(=O)(=O)c2ccc(C)cc2)cc1, the activation is reported as inactive: -2.36%.
COC(=O)c1c(NC(=O)c2ccc(Cl)c(Cl)c2)sc2c1CCCC2 was tested, and the activation was inactive: 6.34%.
In the case of CCOC(=O)c1sc2ncn(CC(=O)Nc3ccc(F)cc3F)c(=O)c2c1C, the activation is reported as inactive: 11.7%.
With C#C[C@]1(O)CC[C@H]2[C@@H]3CCC4=CC(=O)CC[C@@H]4[C@H]3CC[C@@]21C the activation was active: 69.3%.
CCOc1ccc(NC(=O)CSc2nnc3scc(-c4ccccc4)n23)cc1 was tested, and the activation was inactive: 30.8%.
CCCCCCCCCCCCCCCCCCOC[C@H](COP(=O)([O-])OCC[N+](C)(C)C)OC was tested, and the activation was inactive: 8.26%.
In the case of Cc1ccc(-c2nc3ccccn3c2Nc2ccccc2C)s1, the activation is reported as inactive: 1.63%.
In the case of COC(=O)C1=C(C)NC(C)=C(C(=O)OC)C1c1ccccc1[N+](=O)[O-], the activation is reported as inactive: -6.08%.
In the case of Cc1c(C(=O)N2CCCCCC2)c(S(=O)(=O)NCc2ccc(Br)cc2)c(C)n1C, the activation is reported as inactive: -14%.
For COc1ccc(Nc2cc(C(=O)NC3CCC(C)CC3)c3ccccc3n2)cc1OC (configuration not stated), the activation was inactive: 5.36%.
COC(=O)c1ccc(NC(=O)NCCn2nnc3cc(S(=O)(=O)N(C)C)ccc32)cc1 was tested, and the activation was inactive: 30.1%.
In the case of CCOc1ccc(CNC(=O)c2ccc3nc(C(C)C)oc3c2)cc1, the activation is reported as inactive: -22.3%.
In the case of CCOc1ccc(C2Nc3c(C)cccc3-c3cc(C)nn32)cc1 (configuration not stated), the activation is reported as inactive: -7.91%.
With CCOc1ccccc1C(=O)Nc1c(C(=O)Nc2ccc(F)cc2)oc2ccccc12 the activation was inactive: -8.74%.
Cn1c(=O)c(=O)n(C)c2cc(S(=O)(=O)CCC(=O)Nc3ccc(F)cc3)ccc21 was tested, and the activation was inactive: -19.5%.
In the case of COc1ccc(S(=O)(=O)NCC(c2ccco2)S(=O)(=O)c2cccs2)cc1C (configuration not stated), the activation is reported as inactive: -2.4%.
For Cc1oc2ncnc(N3CCOCC3)c2c1C(=O)N(Cc1ccccc1)C(C)C, the activation was inactive: -13.4%.
With Cc1ccc(C2=NN(CC(=O)NCCC(C)C)C(=O)CC2)cc1 the activation was inactive: -24.8%.
In the case of CCOC(=O)c1cc(OC(=O)c2ccc(C)cc2)n(-c2ccccc2)n1, the activation is reported as inactive: 5.02%.
For COc1cccc(-c2nnc(-c3ccccc3NC(=O)c3cccc(C(F)(F)F)c3)o2)c1, the activation was inactive: 9.18%.
In the case of CCOc1ccc(NC(=O)c2cnn3c2NC(c2cccc(OC)c2)=CC3c2ccccc2)cc1 (configuration not stated), the activation is reported as inactive: -24.9%.
With O=c1c(S(=O)(=O)c2ccccc2)cn(Cc2cccc(F)c2)c2cc(N3CCOCC3)c(F)cc12 the activation was inactive: -10.5%.
For COc1ccc(OC(=O)c2nc(SCc3ccc(F)cc3)ncc2Cl)cc1, the activation was inactive: -19.7%.
With Cn1c(=O)n(C)c2cc(N3CCOCC3)c(NC(=O)c3ccccc3Br)cc21 the activation was inactive: -21.3%.
In the case of CCOC(=O)c1ccc(NC(=O)c2c(NCc3cccs3)sc3c2CCCC3)cc1, the activation is reported as inactive: -14.1%.
For CCc1ccc(S(=O)(=O)c2cn(C)c3cc(N4CCC(C)CC4)c(F)cc3c2=O)cc1, the activation was inactive: -4.31%.
In the case of COc1ccc(NC(=O)c2ccco2)cc1NC(=O)COc1ccccc1, the activation is reported as inactive: -4.23%.
For Cc1ccc(C(=O)Nc2nnc(S(=O)(=O)N3c4ccccc4CC3C)s2)cc1 (configuration not stated), the activation was inactive: 30.4%.
For COc1cccc(CNC(=O)c2cc(S(=O)(=O)N3CCCCC3)cn2C)c1, the activation was inactive: 11.6%.
For COc1ccc(CNC(=O)CN2C(=O)CSc3ccc(S(=O)(=O)N4CCOCC4)cc32)c(OC)c1, the activation was inactive: -19.1%.
CC(=O)Nc1ccc(NC(=O)CSc2nc3ccccc3nc2N2CCC(C)CC2)cc1 was tested, and the activation was inactive: 19.5%.
Cc1c(Cl)cccc1NC(=O)CN(CCc1ccccc1)S(=O)(=O)c1ccccc1 was tested, and the activation was inactive: 19.4%.
For CCOc1ccc(CNCc2c(C(=O)O)n(Cc3ccc(C)cc3)c3cc(C)ccc23)cc1, the activation was active: 64.3%.
With Cc1cccc(C(=O)N2CCc3cc(CNS(=O)(=O)c4ccc(Cl)s4)ccc32)c1 the activation was inactive: 3.57%.
In the case of Cc1ccccc1OCC(=O)Nc1ccc(-c2nc3ncccc3o2)cc1, the activation is reported as inactive: -8.4%.
In the case of CCCCN(CC)CCNC(=O)c1cc2c(=O)[nH]c3ccccc3c2n1C, the activation is reported as inactive: 10.4%.
With Cc1ccccc1Nc1ncnc2c1cnn2C the activation was inactive: 8.88%.
For O=C(NCc1ccccc1)c1ccc(CSc2nc3cccnc3n2Cc2cccc(F)c2)cc1, the activation was inactive: -18.2%.
For CCCCn1nc(NC(=O)c2cccc(Cl)c2)c2cc3ccccc3nc21, the activation was inactive: -7.15%.
In the case of Cc1ccccc1NS(=O)(=O)c1ccc2[nH]cc(C(=O)N3CCCCC3)c(=O)c2c1, the activation is reported as inactive: -2.18%.
In the case of COc1ccc(C)cc1-n1nnc(-c2nc(-c3ccccc3Cl)no2)c1N, the activation is reported as inactive: -12.3%.
With CCCCn1c(NCc2ccc(OC)cc2O)nc2ccccc21 the activation was active: 70.1%.
With O=C(NCc1ccc(F)cc1)c1ccc2c(O)c(S(=O)(=O)c3ccccc3)c(=O)[nH]c2c1 the activation was inactive: -18.5%.
For Cc1ccccc1CN1C(=O)c2ccccc2Sc2ccc(C(=O)N3CCCC3)cc21, the activation was inactive: -25%.
In the case of CCCc1nc2ccccc2n2c(-c3ccccc3)c3c(=O)n(C)c(=O)n(C)c3c12, the activation is reported as inactive: -25.5%.
